Measured values published in a collection of fitness landscapes (doi:10.1016/j.celrep.2020.107928).
The full ranking holds about 81,000 sequences; the median of “one-hybrid fitness for binding parS DNA” is about -0.17, and the highest 2% start at about 0.51. The list shows a part of the results.

B1: Caulobacter ParB omega fusion; a variant is named by its letters at X, in order, B8GW30 (parent)
chain: MESVVVGEPGMSEGRRGLGRGLSALLGEVDAAPAQAPGEQLGGSREAPIEILQRNPDQPRRTFREEDLEDLSNSIREKGVLQPILVRPSPDTAGEYQIVAGERAWRAAQRAGLKTVPIMVRELDDLAVLEIGIIENVQRADLNVLEEALSYKVLMEKFERTQENIAQTIGKSXSHVANXMRLLXLPDEVQSYLVSGELTAXHARAIAAAADPVALAKQIIEGGLSVRETEALARKAPNLSAGKSKGGRPPRVKDTDTQALESDLSSVLGLDVSIDHRGSTGTLTITYATLEQLDDLCNRLTRGI

Variants of: B1
Experiment: one-hybrid fitness for binding parS DNA (scaled: cognate 1, non-cognate 0); higher = stronger binding
Conditions: with parS DNA site
Procedure, shortened: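 In E. coli USO, a HIS3 reporter with its site placed 19 bp from the promoter was used to select Caulobacter ParB variants randomised at four specificity codons. Growth lasted 48 hours at 37°C on histidine-free M9 containing 0.1 mM IPTG and 5 mM 3-AT. Fitness was taken as the log change in variant-to-wild-type read ratio from Illumina sequencing of pre- and post-selection plasmids, rescaled between the non-cognate and cognate sites.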

Variant	one-hybrid fitness for binding parS DNA
RMFI	≤ 0.2
GPTF	≤ 0.2
EAAW	≤ 0.2
PSNY	≤ 0.2
TNIT	≤ 0.2
CHSN	≤ 0.2
TLFI	≤ 0.2
CGCT	≤ 0.2
KRQD	≤ 0.2
THLP	≤ 0.2
VYEP	≤ 0.2
QTRC	≤ 0.2
TFKR	≤ 0.2
PGKI	≤ 0.2
IPGI	≤ 0.2
RVFT	0.917
RYFV	≤ 0.2
MPNK	≤ 0.2
LDLD	≤ 0.2
TWYM	≤ 0.2
AEPG	≤ 0.2
QDMT	≤ 0.2
YKCT	≤ 0.2
QFRR	≤ 0.2

Variant	one-hybrid fitness for binding parS DNA
KQNR	≤ 0.2
AKHL	≤ 0.2
QGWG	≤ 0.2
STHT	≤ 0.2
NEQT	≤ 0.2
IRLL	≤ 0.2
KKQA	≤ 0.2
SERY	≤ 0.2
HATK	≤ 0.2
TNMR	≤ 0.2
YGRH	≤ 0.2
KTPW	≤ 0.2
WSFG	≤ 0.2
PRTA	≤ 0.2
NVPC	≤ 0.2
AYVV	≤ 0.2
TCDY	≤ 0.2
PTAQ	≤ 0.2
KSPP	≤ 0.2
KHNY	≤ 0.2
QTCP	≤ 0.2
VYTR	≤ 0.2
LTPD	≤ 0.2
HLPY	≤ 0.2

Variant	one-hybrid fitness for binding parS DNA
DYHT	≤ 0.2
SKYF	≤ 0.2
RRHL	≤ 0.2
DDML	≤ 0.2
GCNM	≤ 0.2
VGGT	≤ 0.2
IAKM	≤ 0.2
YRGN	≤ 0.2
TGLC	≤ 0.2
PTSP	≤ 0.2
QMVC	≤ 0.2
YDRW	≤ 0.2
HAYM	≤ 0.2
ASLM	≤ 0.2
CFND	≤ 0.2
LFPA	≤ 0.2
RTSR	≤ 0.2
RCDC	0.877
MIKR	≤ 0.2
QNSH	≤ 0.2
QTDH	≤ 0.2
PMHS	≤ 0.2
ITER	≤ 0.2
TTCG	≤ 0.2

Variant	one-hybrid fitness for binding parS DNA
RIYP	0.203
YMNL	≤ 0.2
CAGE	≤ 0.2
GCPV	≤ 0.2
ITCG	≤ 0.2
DCMG	≤ 0.2
YYNR	≤ 0.2
VQIL	≤ 0.2
QNIA	≤ 0.2
TSEE	≤ 0.2
SSEL	≤ 0.2
TVPV	≤ 0.2
LPCK	≤ 0.2
ERSY	≤ 0.2
EVIG	≤ 0.2
EILV	≤ 0.2
KLSR	≤ 0.2
NQSI	≤ 0.2
VLKG	≤ 0.2
QVWG	≤ 0.2
HCIL	≤ 0.2
WRSA	≤ 0.2
PLGE	≤ 0.2
KRNC	≤ 0.2

Variant	one-hybrid fitness for binding parS DNA
HGWF	≤ 0.2
PHEL	≤ 0.2
YVGA	≤ 0.2
CRHN	≤ 0.2
SQLM	≤ 0.2
YKDH	≤ 0.2
LCAK	≤ 0.2
DHRK	≤ 0.2
CPYC	≤ 0.2
VASD	≤ 0.2
RPEW	≤ 0.2
DAHN	≤ 0.2
RAWI	≤ 0.2
LASE	≤ 0.2
EDIG	≤ 0.2
NIMG	≤ 0.2
FSVS	≤ 0.2
YPYF	≤ 0.2
YHPL	≤ 0.2
SHKL	≤ 0.2
KFKS	≤ 0.2
PMYW	≤ 0.2
WQYS	≤ 0.2
GPRS	≤ 0.2

Variant	one-hybrid fitness for binding parS DNA
PPTL	≤ 0.2
NIAE	≤ 0.2
NKRC	≤ 0.2
CNVF	≤ 0.2
IDYT	≤ 0.2
ITDC	≤ 0.2
WANG	≤ 0.2
VGTS	≤ 0.2
RRMP	≤ 0.2
KMLN	≤ 0.2
AQFA	≤ 0.2
LMFC	≤ 0.2
DAWG	≤ 0.2
VRLL	≤ 0.2
IDQY	≤ 0.2
IVTG	≤ 0.2
LEWW	≤ 0.2
TGCS	≤ 0.2
DASV	≤ 0.2
IILP	≤ 0.2
EVTN	≤ 0.2
RKEE	≤ 0.2
MTYV	≤ 0.2
LMRT	≤ 0.2

Variant	one-hybrid fitness for binding parS DNA
DCGG	≤ 0.2
RSST	0.883
RNES	0.776
AAFL	≤ 0.2
TEYL	≤ 0.2
GWIS	≤ 0.2
GLRS	≤ 0.2
PATW	≤ 0.2
MDTR	≤ 0.2
GHRC	≤ 0.2
QRKY	≤ 0.2
YGCA	≤ 0.2
RNLE	≤ 0.2
PISI	≤ 0.2
AASA	≤ 0.2
DKES	≤ 0.2
ITMD	≤ 0.2
RSLG	0.987
QRCC	≤ 0.2
IKQR	≤ 0.2
NRTQ	≤ 0.2
VAFT	≤ 0.2
QQTY	≤ 0.2
APAL	≤ 0.2

Variant	one-hybrid fitness for binding parS DNA
HVNE	≤ 0.2
NTMS	≤ 0.2
DNNT	≤ 0.2
YHNT	≤ 0.2
AACS	≤ 0.2
GTKS	≤ 0.2
CNGF	0.228
SDHM	≤ 0.2
RHAF	≤ 0.2
STYR	≤ 0.2
HWWR	≤ 0.2
GMVS	≤ 0.2
QGLM	≤ 0.2
MYNR	≤ 0.2
HTQY	≤ 0.2
WSWR	≤ 0.2
GALT	≤ 0.2
PDTL	≤ 0.2
DIQQ	≤ 0.2
PLMM	≤ 0.2
NNDS	≤ 0.2
QHIS	≤ 0.2
LQPA	≤ 0.2
APLR	≤ 0.2

Variant	one-hybrid fitness for binding parS DNA
GQEK	≤ 0.2
LHLT	≤ 0.2
MMMY	≤ 0.2
VPNL	≤ 0.2
TCES	≤ 0.2
NMQG	≤ 0.2
RWKA	0.574
CCRN	≤ 0.2
HGNS	≤ 0.2
LIVV	≤ 0.2
KIKR	≤ 0.2
LYQD	≤ 0.2
IYSG	≤ 0.2
TPWG	≤ 0.2
ETGS	≤ 0.2
VVKC	≤ 0.2
LIFY	≤ 0.2
QVKW	≤ 0.2
EQIM	≤ 0.2
AAFW	≤ 0.2
PSNS	≤ 0.2
CFMR	≤ 0.2
MLCI	≤ 0.2
TLWL	≤ 0.2

Variant	one-hybrid fitness for binding parS DNA
MHMM	0.262
SFTS	≤ 0.2
PEYD	≤ 0.2
SDGG	≤ 0.2
VRPY	≤ 0.2
KMHC	≤ 0.2
PQTT	≤ 0.2
PKFS	≤ 0.2
YDSS	≤ 0.2
KNGS	≤ 0.2
RWMI	≤ 0.2
HDEG	≤ 0.2
GAYA	≤ 0.2
WYPV	≤ 0.2
QVTI	≤ 0.2
VSMI	≤ 0.2
DNFC	≤ 0.2
HHKQ	≤ 0.2
YYLW	≤ 0.2
GPHK	≤ 0.2
SETC	≤ 0.2
NNLC	≤ 0.2
YYNV	≤ 0.2
VLNA	≤ 0.2

Variant	one-hybrid fitness for binding parS DNA
WHQW	≤ 0.2
SYTT	≤ 0.2
SKHD	≤ 0.2
RCTT	0.949
CDNS	≤ 0.2
PMCY	≤ 0.2
LEGK	≤ 0.2
HKKC	≤ 0.2
TKEG	≤ 0.2
CKAI	≤ 0.2
PIRQ	≤ 0.2
WYGN	≤ 0.2
QLVC	≤ 0.2
RLIP	≤ 0.2
RAIR	≤ 0.2
IFVE	≤ 0.2
HLDI	≤ 0.2
RSAQ	≤ 0.2
GTLN	≤ 0.2
WGTR	≤ 0.2
SFTW	≤ 0.2
SVDF	≤ 0.2
EKYS	≤ 0.2
YLTC	≤ 0.2

Variant	one-hybrid fitness for binding parS DNA
QIDV	≤ 0.2
GMLS	≤ 0.2
LDLL	≤ 0.2
WKPK	≤ 0.2
PLHW	≤ 0.2
LNFR	≤ 0.2
MARI	≤ 0.2
MTGN	≤ 0.2
PYIS	≤ 0.2
HLKG	≤ 0.2
GWTD	≤ 0.2
VWNG	≤ 0.2
LIRN	≤ 0.2
MVPR	≤ 0.2
FPNM	≤ 0.2
PSAN	≤ 0.2
PAPE	≤ 0.2
QVID	≤ 0.2
CGAV	≤ 0.2
DGYW	≤ 0.2
TTPG	≤ 0.2
RPHR	≤ 0.2
RYDF	≤ 0.2
QADS	≤ 0.2

Variant	one-hybrid fitness for binding parS DNA
QYRM	≤ 0.2
SCNT	≤ 0.2
MISW	≤ 0.2
WCHS	≤ 0.2
LATY	≤ 0.2
PWDL	≤ 0.2
RVVW	0.235
PVSE	≤ 0.2
NTLD	≤ 0.2
AKQA	≤ 0.2
SAVI	≤ 0.2
RFTN	0.405
RSIH	≤ 0.2
AHSG	≤ 0.2
QWQT	≤ 0.2
QNCR	≤ 0.2
RFVM	≤ 0.2
TVVA	≤ 0.2
